# Test results: article PMC12136788
# Numbering of substitutions follows the chain as printed. The list shows a part of the results.
# T1: UNK ZnF1-3 (human, UniProt Q9C0B0 31-174)
# T1 sequence: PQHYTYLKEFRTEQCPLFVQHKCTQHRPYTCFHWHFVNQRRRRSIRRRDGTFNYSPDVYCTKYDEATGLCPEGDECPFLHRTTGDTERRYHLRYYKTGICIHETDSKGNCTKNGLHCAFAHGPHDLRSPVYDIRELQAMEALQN
# B1: chr6:119166446:119166447:+_ENSMUSG00000041477_ENSMUST00000149651|mus_mus|motif|central (ssRNA)
# RNA: GGGAGUUCUACAGUCCGACGAUCUGCCCAAGGCCUUUGUUUUAAAAAUCAUGAACAAUUUCUGAGGACCUACUCUGAGCGGUGUGAUGAAACAAGUAAAAAAGAUCAAGAUUUUUAAAUAAAUAAAAUAAAAAUAAAAAUAAACAACAGAGGAUUGAGCAUCA
# B2: chr6:56729896:56729897:-_ENSMUSG00000059486_ENSMUST00000114323|mus_mus|FALSE|FALSE (ssRNA)
# RNA: GGGAGUUCUACAGUCCGACGAUCCUUAUGCAAAUCAGCGGGUGGGCUGCAUAACUUGUAAACUUUUUCUGCCUGGGGGCUAUAACAGACAGAAGAGUAAAGACUACAAGGGUUUUCUGAGGAUGCUUCAAUGAAAAUCAUCAUCAACAGAGGAUUGAGCAUCA
# B3: 44164716_44164836_307_3pUTR_ENSMUSG00000039753_ENSMUST00000047857|mouse|control|control (ssRNA)
# RNA: GGGAGUUCUACAGUCCGACGAUCAGCAUCUCGGAGAGCUUAUUGUCAGAGUGUACAUUAUAUAUGGUCUGACUGCGCUGCUGAAGUAAACCGAUAAUGUAUUCAUUUUCAAUUUGUUCAUGCAUUUUAAACUCCUUGAAAGUACAACAGAGGAUUGAGCAUCA
# B4: chr12:73312838:73312839:-_ENSMUSG00000021087_ENSMUST00000021497|mus_mus|FALSE|FALSE (ssRNA)
# RNA: GGGAGUUCUACAGUCCGACGAUCUCAGUAUCAAGUACAUAAGUGCAAAUAUCCAGAGUCUGUGAUUGAGUCCAUUAGGAACUACAGAGGAAGUAAUACAAAUUGUAAUAAAGUCAACAUGCUGGCACCUUUAGUUACCAUACACAACAGAGGAUUGAGCAUCA
# B5: 88154387_88168238_179_CDS_ENSMUSG00000005621_ENSMUST00000107353|mouse|control|control (ssRNA)
# RNA: GGGAGUUCUACAGUCCGACGAUCGGGAUCUGGGAUGUCAAAGGCAGCCAGGAGAUCAUCAAAAUCUGGAGUUUUCAUAUCCCCCAUGGCUGGAUGCUGACAAGUACUUAGUGAGGUUCUCAAAACAAGGGUGUGGUGAGCGUUCAACAGAGGAUUGAGCAUCA
# B6: chr2:192257801:192257802:+_ENSG00000128641_ENST00000304164|hu_hu|FALSE|FALSE (ssRNA)
# RNA: GGGAGUUCUACAGUCCGACGAUCAUAUAUCUUCUGAAUGAGAGUGGCCAAGUCCUCCAGGCGUUGCUUCCUCAGGUCUUCUAAUUUGAAUAAUGUUCUUGGGUUUCGGAUGAAUAUCUUUGAUCUACCAAAGGAGUAUUCUUCCAACAGAGGAUUGAGCAUCA
# B7: chr7:141450121:141450122:+_ENSG00000106028_ENST00000265304|hu_mus|hu_hu_hu_mus_True|68_98 (ssRNA)
# RNA: GGGAGUUCUACAGUCCGACGAUCUCAUCCGUUCUAUUCCUUCUCUUUUGUCUGGUCACUCAGAAAUAUAAUAUUAUCAGCUAUGAUUGUUGUUGCUUGCCGCCUCACAUUGUUUUUAUCCAUGUACUCGCCAUAGUCCACUUUCAACAGAGGAUUGAGCAUCA
# B8: 115891780_115891900_2025_3pUTR_ENSG00000165813_ENST00000369287|human|control|control (ssRNA)
# RNA: GGGAGUUCUACAGUCCGACGAUCGGAUUCAGACUGAAGCUGUGCAUUCUUACUAGUGAGCCUUUCUGUAAACAGCAGCAGCUCAGAUUCUCUUUUCCUACUGCCUUCGAUGUCUUUUUGUAGGUCAUUAAUCAAAGAAUUAAGCAACAGAGGAUUGAGCAUCA
# B9: chr2:169020305:169020306:-_ENSG00000198648_ENST00000355999|hu_hu|motif|central (ssRNA)
# RNA: GGGAGUUCUACAGUCCGACGAUCCUGACCGUUUCUGUGUAGAUAGUCUAAGCCUUCCAAAACCUCUUUAAGAAUUGUUGCGGUUAUUGCCUCUUCCAGAACUCCAUUCUUGUGUUCUCCUCGGUUGACAAUGUAUUUUAUGAUCAACAGAGGAUUGAGCAUCA
# B10: chr8:80553714:80553715:+_ENSG00000104435_ENST00000220876|hu_hu|motif|central (ssRNA)
# RNA: GGGAGUUCUACAGUCCGACGAUCAGCCUCCAGUUUCUUCUGGAUCUCCUCCAGGGACAGGUCUUUCUUCUUUGGAGAAGCGGAAGUUCGUGGGGCUUCUGAGAUAGGAGAUGGUGGCUUCAAGAUCAGCUCAAAAGCCUGGCCCAACAGAGGAUUGAGCAUCA
# B11: chr9:95013113:95013114:-_ENSG00000196305_ENST00000443024|hu_hu|hu_hu_hu_mus_False|18_48 (ssRNA)
# RNA: GGGAGUUCUACAGUCCGACGAUCCUCAGUCAGAAAGGGCGUGUAAGGGGCCAUCAGUCUGCACAGAGAAAGCAGGACACUGAACAGGGUUUCUAGGGCCAUGACACAGUCUUCCACCCCAUUUUCACCCUUUAACCUCCUCCUCAACAGAGGAUUGAGCAUCA
# B12: chr4:144460044:144460045:+_ENSG00000153147_ENST00000283131|hu_mus|hu_hu_hu_mus_False|1_88 (ssRNA)
# RNA: GGGAGUUCUACAGUCCGACGAUCACGGUCCAUAGCCUGAAGAUCAACUUGGGGAUUCCAAUCUGAGUCAUAUAAAAUGACUACAUCAGCAGUUGCAAGAUUGAUGCCCAGACCACCAGCACGUGUGCUUAGCAUAAAAACAAACAACAGAGGAUUGAGCAUCA
# B13: chrX:71549400:71549401:+_ENSMUSG00000019087_ENSMUST00000019231|mus_hu|mus_mus_mus_hu_False|18_108 (ssRNA)
# RNA: GGGAGUUCUACAGUCCGACGAUCGCAAGGAAGAGGAGGAAGCUCUUCAGUCCAGUGCGCUGCAGGGUGGGAAAGCAACAACACGGACACCGUCCCACCCUCAACCCCCCCACUGGCAUGUCACACAACAAUCUGGGUCAAAGACAACAGAGGAUUGAGCAUCA
# B14: chr7:44244176:44244177:+_ENSG00000106636_ENST00000223369|hu_mus|hu_hu_hu_mus_False|98_108 (ssRNA)
# RNA: GGGAGUUCUACAGUCCGACGAUCACUAUCAUUCCGGACGUAGACGUGGCAAAGAUACUCUUGUUCUUUGACAGAAGCUCUGCUGCCUUUCCCCGAGCGUUCCACAAUCAGUUGACUUGUAAAGGUCAUGAAUUCCUGCACACUCAACAGAGGAUUGAGCAUCA
# B15: chr5:128448638:128448639:+_ENSG00000066583_ENST00000173527|hu_mus|hu_hu_hu_mus_False|58_58 (ssRNA)
# RNA: GGGAGUUCUACAGUCCGACGAUCGGCACUCGCCUUAAUUAGGUUCUGAAUUUCCUUGAACUUCGGGUGGUCUUUGUCAGCUACCAGCUGUAGGAGGACAGCCUCACUAGUGGUCACGAUGAUCCCAGUGCGGGCAAGACGCUCCAACAGAGGAUUGAGCAUCA
# B16: chr1:66463027:66463028:+_ENSMUSG00000015222_ENSMUST00000114013|mus_mus|mus_mus_mus_hu_True|18_18 (ssRNA)
# RNA: GGGAGUUCUACAGUCCGACGAUCUUUUCUUUCAGGAGUGGAAAUUCUGCCUCUCCCGGUUUUAAAAGGCUUUUCUUUUCUAUGUUUCUCAAGAGAUGAUCUCCGAGCUUCCUUUUCAGCUCUCUCCUCUUUAGGAAUAGUUUCCAACAGAGGAUUGAGCAUCA
# B17: chr4:156296975:156296976:-_ENSG00000164114_ENST00000311277|hu_mus|FALSE|FALSE (ssRNA)
# RNA: GGGAGUUCUACAGUCCGACGAUCUCCUGAAAGGAAGUUCUCUUGGUAGCCUUUGGACUCUUGGUGUACGCCAAAGUUGUGCUGAAGAUUUCAUCGGACAUGGUGUGUCCUUUUUCUCUGCUUUUAUACAACAGUUAAUAAAUUCAACAGAGGAUUGAGCAUCA
# B18: chr7:65617436:65617437:+_ENSG00000241258_ENST00000415001|hu_mus|FALSE|FALSE (ssRNA)
# RNA: GGGAGUUCUACAGUCCGACGAUCGACCCCAAAGCACAAAGAUUUCUUUUCAUCUUAUUUUUGUGAUUUUUUUCCCCCAACAAAUCCUGAGAUCAGGCAUACUGAGAGAGGGGGUCAGGCCAAAUAAAGAGUUCUCUGAACAUCCAACAGAGGAUUGAGCAUCA
# B19: chr14:78183846:78183847:+_ENSG00000119705_ENST00000557342|hu_hu|hu_hu_hu_mus_False|48_88 (ssRNA)
# RNA: GGGAGUUCUACAGUCCGACGAUCUCUCAGAAAUCUUUCUUCAUCAGCAUCAUCAGAUCCGUGCAAAGCCUUUGCUCUUUGAGCUUGAACCUGGACCUAUGGGAGGGAAAGCACUGUCAGAAAAGGUAAUUUUUUUUUUAAAGACAACAGAGGAUUGAGCAUCA
# B20: 98015970_98016090_1530_3pUTR_ENSMUSG00000041773_ENSMUST00000041623|mouse|control|control (ssRNA)
# RNA: GGGAGUUCUACAGUCCGACGAUCAGCAGAUCCAUGGCCAAACCUGGCCACCAGCAUGGGGGCAGCCUUGGACCACUCCUCAUGCAGGGUAUCGUAAACCCAGACAUCUUUUGAGACUCCGUUCUCUGAUCCCCGCCCCCCAGUCAACAGAGGAUUGAGCAUCA
# B21: chr9:95013113:95013114:-_ENSG00000196305_ENST00000443024|hu_hu|hu_hu_hu_mus_False|48_108 (ssRNA)
# RNA: B11 RNA with C30G, G36A, U121C, U123C
# B22: 153235310_153235430_3441_3pUTR_ENSMUSG00000061411_ENSMUST00000109784|mouse|control|control (ssRNA)
# RNA: GGGAGUUCUACAGUCCGACGAUCUUUGUGUCUAGCUUGGGUACUGCCUCUGGGAGCAGACAGAAUGCGGUAAGCAAUUGAUAACAGAAAUUCUAGGGUGGCGAUUGUCUCUGCCAAUUUUCAACAUUUUCACAAAUUGCCUGGCAACAGAGGAUUGAGCAUCA
# Biological target: T1, UNK ZnF1-3
# Assay: nsRBNS (natural sequence RNA bind-n-seq); RBNS binding buffer (assumed for nsRBNS): 25 mM Tris pH 7.5, 150 mM KCl, 3 mM MgCl2, 0.01% Triton X-100, 500 ug/ml BSA, 20 U/ml SUPERase-In, 4 C; UNK is unkempt and MSI1 is Musashi-1; names of the RNAs are library labels; protein concentration not given here; high values mean tight binding
row,Binder,binding signal
1,B1,0.268 enrichment R
2,B2,1.49 enrichment R
3,B3,0.973 enrichment R
4,B4,1.71 enrichment R
5,B5,1.08 enrichment R
6,B6,1.02 enrichment R
7,B7,0.436 enrichment R
8,B8,0.802 enrichment R
9,B9,0.439 enrichment R
10,B10,0.853 enrichment R
11,B11,0.617 enrichment R
12,B12,1.32 enrichment R
13,B13,1.5 enrichment R
14,B14,0.798 enrichment R
15,B15,0.845 enrichment R
16,B16,0.349 enrichment R
17,B17,0.543 enrichment R
18,B18,1.42 enrichment R
19,B19,1.91 enrichment R
20,B20,0.937 enrichment R
21,B21,0.754 enrichment R
22,B22,1.06 enrichment R
